According to patent US20250019377A1 (JACOBIO PHARMACEUTICALS CO., LTD, priority 2021, published 2025):

Legend:
[1] = biological target: K-Ras G12C (Homo sapiens, UniProt P01116, G12C); experiment: SOS1 catalyzed nucleotide exchange assay (GDP form K-Ras), K-Ras G12C; details: read-out: K-Ras G12C GDP Biochemical Activity (IC50)
[2] = biological target: K-Ras G12V (Homo sapiens, UniProt P01116, G12V); experiment: SOS1 catalyzed nucleotide exchange assay (GDP form K-Ras), K-Ras G12V; details: read-out: K-Ras G12V GDP Biochemical Activity (IC50)
[3] = biological target: K-Ras G12D (Homo sapiens, UniProt P01116, G12D); experiment: GTP-K-Ras and cRAF interaction assay (GppNp-K-Ras), K-Ras G12D; details: read-out: K-Ras G12D GppNp Biochemical Activity (IC50)
[4] = biological target: K-Ras Q61H (Homo sapiens, UniProt P01116, Q61H); experiment: SOS1 catalyzed nucleotide exchange assay (GDP form K-Ras), K-Ras Q61H; details: read-out: K-Ras Q61H GDP Biochemical Activity (IC50)
[5] = biological target: K-Ras WT (Homo sapiens, UniProt P01116); experiment: SOS1 catalyzed nucleotide exchange assay (GDP form K-Ras), K-Ras WT; details: read-out: K-Ras WT GDP Biochemical Activity (IC50)
[6] = biological target: K-Ras G12R (Homo sapiens, UniProt P01116, G12R); experiment: SOS1 catalyzed nucleotide exchange assay (GDP form K-Ras), K-Ras G12R; details: read-out: K-Ras G12R GDP Biochemical Activity (IC50)
[7] = biological target: K-Ras G12A (Homo sapiens, UniProt P01116, G12A); experiment: SOS1 catalyzed nucleotide exchange assay (GDP form K-Ras), K-Ras G12A; details: read-out: K-Ras G12A GDP Biochemical Activity (IC50)

Structure (SMILES)	IC50 [1]	IC50 [2]	IC50 [3]	further results
C#Cc1c(F)ccc2cc(O)cc(-c3ncc4c(N5CCCOCC5)nc(OCC56CCCN5CC(SC)C6)nc4c3F)c12 (centres unmarked) [Compound 100, 5-ethynyl-6-fluoro-4-(8-fluoro-2-((2-(methyl-thio)tetrahydro-1H-pyrrolizin-7a(5H)-yl)methoxy)-4-(1,4-oxazepan-4-yl)pyrido [4,3-d]pyrimidin-7-yl)naphthalen-2-ol]	0.802 nM	1.2 nM	–	–
C#Cc1c(F)ccc2cc(O)cc(-c3c(F)cc4c(N5CCCOCC5)nc(OC[C@@]56CCCN5C[C@H](F)C6)nc4c3F)c12 [Compound 148, 4-(6,8-difluoro-2-(((2R,7aS)-2-fluorotetra-hydro-1H-pyrrolizin-7a(5H)-yl)methoxy)-4-(1,4-oxazepan-4-yl)quinazolin-7-yl)-5-ethynyl-6-fluoronaphthalen-2-ol]	0.709 nM	1.66 nM	–	–
C#Cc1c(F)ccc2cc(O)cc(-c3ncc4c(N5CCCOC(C)C5)nc(OC[C@@]56CCCN5C[C@H](F)C6)nc4c3F)c12 (stereo partly drawn) [Compound 149, 5-ethynyl-6-fluoro-4-(8-fluoro-2-(((2R,7aS)-2-fluorotetrahydro-1H-pyrrolizin-7a(5H)-yl)methoxy)-4-(2-methyl-1,4-oxazepan-4-yl)pyrido[4,3-d]pyrimidin-7-yl) naphthalen-2-ol]	–	2.71 nM	16 nM	–
C#Cc1c(F)ccc2cc(O)cc(-c3ncc4c(N5CC6COC(C6)C5)nc(OC[C@@]56CCCN5C[C@H](F)C6)nc4c3F)c12 (single isomer, unassigned) [Compound 84B, 4-(4-((1S,5R)-6-oxa-3-azabicyclo[3.2.1]octan-3-yl)-8-fluoro-2-(((2R,7aS)-2-fluorotetra-hydro-1H-pyrrolizin-7a(5H)-yl)methoxy)pyrido[4,3-d]pyrimidin-7-yl)-5-ethynyl-6-fluoronaphthalen-2-ol or 4-(4-((1R,5S)-6-oxa-3-azabicyclo[3.2.1]octan-3-yl)-8-fluoro-2-(((2R,7aS)-2-fluorotetra-hydro-1H-pyrrolizin-7a(5H)-yl)methoxy)pyrido[4,3-d]pyrimidin-7-yl)-5-ethynyl-6-fluoronaphthalen-2-ol]	3.19 nM	0.983 nM	–	–
C#Cc1c(F)ccc2cc(O)cc(-c3ccc4c(N5CCCOCC5)nc(OC[C@@]56CCCN5C[C@H](F)C6)nc4c3F)c12 [Compound 147, 5-ethynyl-6-fluoro-4-(8-fluoro-2-(((2R,7aS)-2-fluorotetrahydro-1H-pyrrolizin-7a(5H)-yl)methoxy)-4-(1,4-oxazepan-4-yl)quinazolin-7-yl)naphthalen-2-ol]	–	1.68 nM	31.2 nM	–
C#Cc1c(F)ccc2cc(O)cc(-c3ncc4c(N5CCOC[C@H](F)C5)nc(OC[C@@]56CCCN5C[C@H](F)C6)nc4c3F)c12 (single isomer, unassigned) [Compound 12B]	–	–	–	IC50 [4]: 0.706 nM; IC50 [5]: 0.66 nM; IC50 [6]: 0.472 nM; IC50 [7]: 0.387 nM
